# Hit rate of the full screen: of about 360,000 compounds, about 17,000 (4.7%) were called active. The inconclusive results got no clear call from the source; some entries with a clear call stand among them for comparison. Cut-off read from the data, not from the text of the source: active = activity change below about -50%; inconclusive = mostly about -30% to -49%; inactive = weaker than that. Where a structure was tested more than once in an assay, its records may differ in their call.
# Assay: qHTS for Inhibitors of Inflammasome Signaling: IL-1-beta AlphaLISA Primary Screen
# Details: THP-1 LPS/ATP IL-1B secretion, 16 h; at 57.5 µM, hits give low values
# Procedure, shortened: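 THP-1 cells pretreated 1 hr with compounds (up to 57.5 uM final), then stimulated with LPS (250 ng/mL final) plus ATP (1.25 mM final); secreted IL-1B measured by AlphaLISA after 16 hr, decreased signal indicating inhibition.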
# % is set by controls: 0 for no effect and ±100 for the full control effect.
row,Compound,activity change
1,COc1ccc(C(C(O)C(=O)c2c[nH]c3ccccc23)N2CCN(c3ccccc3)CC2)cc1 (configuration not stated),inactive: 14.4%
2,COc1ccc(/[N+]([O-])=C/c2ccoc2)cc1,inconclusive: -33.5%
3,CCC[C@@H](CN1CCC[C@H]1CN1C(N)=NC[C@@H]1Cc1ccccc1)N1C[C@@H]([C@H](C)CC)N(CCc2ccc(Cl)c(Cl)c2)C1=N,inconclusive: -34.1%
4,Cc1ccc(N2C(=O)c3ccc(C(=O)N4CCN(Cc5ccccc5)CC4)cc3C2=O)cc1,inactive: -5.53%
5,C=CCNc1nc(-c2ccc3c(c2)OCCO3)cs1,inconclusive: -36.9%
6,O=C(OCC(=O)N1CCN(S(=O)(=O)c2ccc(Cl)cc2)CC1)c1ccc([N+](=O)[O-])o1,inconclusive: -47.4%
7,Cc1cccc(C)c1-n1nnnc1C1(Nc2ccccc2)CCCCC1,inconclusive: -38.5%
8,COc1cc(/C=C2\C(=O)N(c3ccccc3)N=C2C)ccc1Oc1ccc([N+](=O)[O-])cc1[N+](=O)[O-],inconclusive: -30.9%
9,CCc1ccc2[nH]c(=O)c(CN(CC3CCCO3)C(=S)NCc3ccco3)cc2c1 (configuration not stated),inconclusive: -34.3%
10,CC(=O)C(CC(=O)N1CCCc2ccccc21)C(=O)Nc1ccc(F)cc1 (configuration not stated),inactive: 35.5%
11,Cc1ccc(-c2nnc(N3CCCCC3)c3ccccc23)cc1,active: -55.7%
12,O=C(CN1c2ccccc2Sc2ccccc21)N/N=C/c1ccc(Cl)cc1,inactive: -14.6%
13,COc1ccc(Br)cc1S(=O)(=O)NCc1ccccn1,inactive: 2.8%
14,COc1ccc(-c2cc(C(=O)N3CC(C)CC(C)C3)c3ccccc3n2)cc1 (configuration not stated),inconclusive: -46.2%
15,CN=c1scc(C)n1/N=C/c1ccc(O)c(O)c1O,inconclusive: -38.8%
16,CCOc1ccc(NC(=S)N(CCOC)C(C)c2cccnc2)cc1 (configuration not stated),inactive: 6.69%
17,COc1cc(/C=N/Nc2nc3ccccc3[nH]2)cc(Br)c1OCC(=O)N(C)C,inconclusive: -45.5%
18,O=C(Nc1ccc(Br)cc1)N1CCc2ccccc2C1,active: -83.4%
19,COc1ccc(Nc2c3c(nc4ccccc24)CCC3)c(OC)c1,inconclusive: -47.7%
20,CC(C)Oc1ccc(C(=O)NC(Cc2c[nH]c3ccccc23)C(=O)NN)cc1 (configuration not stated),inconclusive: -32.3%
21,Cc1cc(/C=C(\C#N)C(=O)NC2CCCCCC2)c(C)n1C,active: -52.6%

row,Compound,activity change
1,CC(=O)c1c(Nc2ccccc2)sc(C(=O)c2ccccc2)c1C,inconclusive: -38.1%
2,COc1ccc(C2CC(c3cccs3)=NN2C(=O)CCl)cc1OC (configuration not stated),active: -103%
3,COc1ccc(-c2nc3cnccn3c2NCc2ccccc2)cc1SC1CCCCC1,inconclusive: -38.1%
4,Brc1ccc(OCc2nnnn2-c2ccccc2)cc1,active: -69.3%
5,Cc1ccc(NC(=S)N(CCN2CCCCC2)Cc2ccco2)cc1,inconclusive: -38.7%
6,O=C1c2c(Br)c(Br)c(Br)c(Br)c2C(=O)N1c1ccccn1,inconclusive: -41.4%
7,Nn1c(SCC(=O)Nc2nccs2)nnc1-c1ccccn1,inactive: 6.82%
8,O=C(NCCO)c1cccc(-c2cnc3cccnn23)c1,inactive: -16.3%
9,CC(C)C1N(S(=O)(=O)c2ccccc2)CCN1S(=O)(=O)c1ccccc1,inactive: -3.47%
10,O=C(NCc1ccc2c(c1)OCO2)c1ccc(CSCc2ccccc2Cl)o1,inconclusive: -44.5%
11,Cc1ccc(/C=C/C(=O)N2CCCC(C(N)=O)C2)o1 (configuration not stated),inactive: 4.65%
12,Fc1cccc(Cl)c1/C=N/Nc1c(Cl)cncc1Cl,inconclusive: -35.3%
13,O=C(C1CCN(Cc2ccccc2)CC1)N1CCN(C/C=C/c2ccccc2)CC1,inconclusive: -38.5%
14,OC[C@@H]1CN(Cc2ccc(-c3ccccc3)cc2)C[C@H](n2cnc3c(NC4CC4)ncnc32)O1,inactive: 8.66%
15,CC(C)(C)n1ncc2c(=O)n(CC(=O)Nc3ccc(Cl)cc3)cnc21,inactive: 39.1%
16,OC[C@@H]1CN(Cc2ccc(-c3ccccc3)cc2)C[C@H](n2cnc3c(N4CCOCC4)ncnc32)O1,inactive: -27.1%
17,Cc1ccc(C(=O)NCC(=O)NCCCc2ccccc2)cc1,inconclusive: -31.5%
18,Nc1nc(-c2ccccc2)c(CCCOc2ccc(NC(=O)CBr)cc2)c(=O)[nH]1,inconclusive: -39.8%
19,COc1cccc(CN(C)C(=O)c2cccc(OC3CCN(C4CCCC4)CC3)c2)c1,inactive: -5.94%
20,COc1ccc(-n2ncc(S(=O)(=O)c3ccccc3)c2-c2ccc(Cl)cc2)cc1,inconclusive: -30.9%
21,O=C(Nc1ccc(Cn2cccn2)cc1)c1ccc(COc2ccccc2Br)cc1,active: -60.1%

row,Compound,activity change
1,C=CCn1c(SCc2c(C)noc2C)nc2ccccc2c1=O,inactive: 40%
2,CN(C)S(=O)(=O)c1ccc(N2CCCC2)c(C(=O)NCc2ccc(Cl)cc2)c1,inconclusive: -47.8%
3,CN1CCN(c2ccc(CNC(=O)C3(C)Cc4c(-c5ccc6c(c5)OCO6)ccnc4O3)cc2)CC1 (configuration not stated),inconclusive: -32.4%
4,COc1ccc(N(CC(=O)Nc2ccc(C)cc2C)S(=O)(=O)c2ccccc2[N+](=O)[O-])c(OC)c1,inconclusive: -39.3%
5,C=CCn1c(CCNC(=O)c2ccco2)nc2ccccc21,inactive: 12.8%
6,O=c1c2c3c(sc2n(CCN2CCCC2)c(=O)n1Cc1ccco1)CCCCC3,inconclusive: -40.1%
7,COc1cc2cc(C)c(SCC(=O)N3CCN(C(=O)c4ccco4)CC3)nc2cc1OC,inconclusive: -35.4%
8,O=C(N[C@@H]1CCC(=O)N(CC[C@H](Sc2ccccc2)c2ccccc2)CC1)OCc1ccccc1,inconclusive: -43.7%
9,COc1ccc(CCn2c(=N)c(C(=O)NCC3CCCO3)cc3c(=O)n4ccccc4nc32)cc1OC (configuration not stated),inconclusive: -31.9%
10,CCOC(=O)COc1ccc(/C=C2/SC(=Nc3ccccc3)N(Cc3cccnc3)C2=O)cc1OC,inconclusive: -43.2%
11,COc1ccc(N2CCN(C(CNC(=O)C(=O)NCCc3c[nH]c4ccccc34)c3ccco3)CC2)cc1 (configuration not stated),active: -51.7%
12,CCN(CC)Cc1cc(Nc2ccnc3cc(Cl)ccc23)ccc1O,active: -77.4%
13,CCOC(=O)C(C)Oc1cccc2c(=O)n(CC(=O)Nc3ccc(OC)cc3)ccc12 (configuration not stated),active: -54.6%
14,O=C(C[n+]1ccc(C(=O)NCc2ccccc2)cc1)c1ccc2c(c1)OCCO2,inconclusive: -47.9%
15,COc1cccc(-c2nc(N3CCN(C)CC3)c3ccccc3n2)c1O,active: -98.2%
16,C[C@H](CO)N1C[C@H](C)[C@@H](CN(C)S(=O)(=O)c2ccccc2)Oc2c(NC(=O)Nc3ccc(C(F)(F)F)cc3)cccc2C1=O,inconclusive: -39.8%
17,COc1ccc(C(Nc2ccccn2)c2c(NC(=O)c3ccco3)sc(C)c2C)cc1 (configuration not stated),inconclusive: -36.3%
18,Cc1cc(C(F)F)n2nc(C(=O)Nc3sc4c(c3C(N)=O)CCC4)nc2n1,inconclusive: -45.8%
19,COc1cccc(-n2nnc3c(=O)n(Cc4ccccc4F)cnc32)c1,inactive: -17.4%
20,COc1ccc(S(=O)(=O)N2CCCC2CNC(=O)c2cccc(OC)c2)cc1 (configuration not stated),inactive: -9%
21,CC1(c2nnc(Cc3ccccc3)o2)CC(c2ccccc2Br)=NO1 (configuration not stated),inactive: 10.8%

row,Compound,activity change
1,Cc1cc(C(=O)COc2ccc(F)cc2Br)c(C)n1C1CC1,inconclusive: -40.8%
2,C=CCN1c2ccc(Br)cc2C(=O)CS1(=O)=O,inactive: 31.2%
3,CN(C)S(=O)(=O)c1ccc(N2CCCC2)c(C(=O)Nc2nc3ccc(F)cc3s2)c1,active: -50.9%
4,O=C(CN1CCN(S(=O)(=O)c2ccc3ccccc3c2)CC1)NC(=O)NC1CCCCC1,inconclusive: -43.3%
5,CC(C)(C)N1C(=O)[C@H]2[C@@H](c3ccc(Br)cc3)N3C(=O)N(c4ccc(Br)cc4)C(=O)[C@@]3(Cc3ccccc3)[C@H]2C1=O,inactive: -21.2%
6,Cc1ccc(/C=C(/C#N)C(=O)NC(C)c2ccccc2)o1 (configuration not stated),inconclusive: -33.7%
7,O=C(NCc1ccc2c(c1)OCO2)c1[nH]c(C(F)(F)F)nc1-c1ccccc1,inactive: 21.9%
8,COc1ccc(C(=O)Nc2nc(-c3ccc([N+](=O)[O-])cc3)c(-c3ccccc3)s2)cc1,inconclusive: -48.1%
9,CCCC(O)(CCC)C(=O)NN(C(=O)CCl)c1cccc(C)c1,active: -219%
10,COc1ccc(-n2cc(CN[C@H]3CCCCNC3=O)c(-c3cccc(F)c3)n2)cc1,inconclusive: -32.8%
11,CN1CCN(C(=O)C2=C[C@@H](c3csc4ccccc34)C[C@@H](OCc3ccc(CO)cc3)O2)CC1,inconclusive: -39.2%
12,O=C(CNC(=O)c1ccco1)Nc1ccc(N2CCCCCC2)cc1,inconclusive: -47.2%
13,CCC(=O)OCC(=O)[C@@]1(OC(=O)CC)[C@@H](C)C[C@H]2[C@@H]3CCC4=CC(=O)C=C[C@]4(C)[C@@]3(Cl)[C@@H](O)C[C@@]21C,active: -58.5%
14,COc1cc(NC(=O)c2ccccc2[N+](=O)[O-])ccc1NC(=O)c1cc2ccccc2o1,inconclusive: -30.1%
15,CS(=O)(=O)N1CCc2cc(C(=O)Nc3ccc(COCC(F)(F)F)cc3)ccc21,inactive: 2.38%
16,CN(C)C(=O)c1cccc(-c2cnc3sc(NCc4ccc5c(c4)OCO5)nn23)c1,inconclusive: -44.8%
17,Cc1ccc(C(C)C)c(OCC(=O)NNCC(=O)Nc2cccc(F)c2)c1,inconclusive: -48.8%
18,Cc1cc(NC(=O)Cc2ccc(Br)cc2)no1,inactive: 16.8%
19,O=C(NCc1ccccc1F)c1ccncc1,inactive: 18.2%

# — PubChem BioAssay AID743279 (National Center for Advancing Translational Sciences (NCATS), 2014)
